Structures are written as SMILES. ± gives the uncertainty stated by the source. Over roughly 9,900 compounds, “viability index relative to DMSO control” has its median near 1; the lowest 2% begin near 0.85. Some of the results follow.

The assay relates to Plasmodium falciparum NF54 stage V gametocytes. Put plainly: viability index relative to DMSO control (fraction); higher = less gametocyte killing. The settings on record: 2.5 µM, library set: Broad Institute DOS, incubation time: 72 h. The essentials: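 Viability index is the count of red-stained particles in a well divided by the plate mean of solvent-only wells. Particles of 20–70 µm2 were counted in one imaged field per well after one to two hours with 3 µl of 2.5 µM MitoTracker Red CMXRos and 0.13% saponin. Before staining, P. falciparum NF54 stage V gametocytes in serum-free medium (0.75% gametocytemia, 1.25% hematocrit, 10 µl, 1,536-well plates) were kept with compound at 2.5 µM for 72 hr at 37°C under low oxygen.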
Regarding `COCC(=O)N1C[C@]2(CN(C2)S(C)(=O)=O)c2c([C@H]1CO)n(C)c1cc(OC)ccc21`, the viability index came to 1.01 ± 0.093.

On to `CNC[C@@H]1OCc2cnnn2CCCC(=O)N([C@@H](C)CO)C[C@@H]1C`, for which the viability index worked out at 1.08 ± 0.07.

Turning to `O=C(C1CCC1)N1CC(=O)N2[C@H](CO)[C@@H](c3ccc(Br)cc3)[C@H]2C1`, the viability index stood at 1.02 ± 0.017.

Take `COCC(=O)Nc1ccc2c(c1)C(=O)N(C)C[C@@H](OC)[C@@H](C)CN(C(=O)c1ccncc1)[C@H](C)CO2`: the viability index came to 1.0814 ± 0.00057.

The compound `CCCNC(=O)Nc1ccc2c(c1)C(=O)N(C)C[C@@H](OC)[C@@H](C)CN(C)[C@@H](C)CO2` displayed a viability index of 1.064 ± 0.01.

Compound `C[C@H](CO)N1C[C@H](C)[C@@H](CN(C)Cc2ccc(Oc3ccccc3)cc2)Oc2ccc(N(C)C)cc2C1=O` yielded a viability index of 0.959 ± 0.042.

On to `COc1cccc(NC(=O)N[C@H]2C=C[C@H](CC(=O)NCc3ccncn3)O[C@@H]2CO)c1`, for which the viability index turned out to be 1.06 ± 0.045.

`Cc1ccc(S(=O)(=O)N[C@@H]2C=C[C@@H](CC(=O)NCc3ccc(Cl)c(Cl)c3)O[C@@H]2CO)cc1` returned a viability index of 0.916 ± 0.13.

Consider `COCC#Cc1ccc([C@@H]2[C@H]3CN(C(=O)CN4CCOCC4)CC(=O)N3[C@H]2CO)cc1`, for which the viability index was 1.131 ± 0.0059.

Compound `CN1C(=O)c2cc(NC(=O)c3cnccn3)ccc2OC[C@H]2O[C@@H](CC(=O)N[C@H]3CCN(Cc4ccccc4)C3)CC[C@H]21` yielded a viability index of 0.9901 ± 0.0041.

Compound `O=C(N[C@H]1CC[C@@H](CC(=O)N2CCOCC2)O[C@H]1CO)c1cccc(F)c1` returned a viability index of 0.979 ± 0.061.

For `C[C@H](CO)N1C[C@H](C)[C@H](CN(C)C(=O)Nc2ccccc2)OCCCC[C@H](C)Oc2ccc(NC(=O)Nc3ccccc3)cc2C1=O`, the viability index came out at 1.03 ± 0.019.

Turning to `CCC(=O)N1CC2(C1)[C@H](c1ccc(-c3ccccc3C)cc1)[C@H](CO)N2C(=O)CC`, the viability index stood at 1.088 ± 0.0012.

Consider `COc1ccc(-c2ccc([C@H]3[C@H](CO)N4C(=O)CN(C(=O)C5CC5)C[C@@H]34)cc2)cc1`, for which the viability index turned out to be 0.9889 ± 0.0082.

For `CC(C)C[C@H]1COCc2cn(nn2)CC[C@@H](Cc2ccc(Cl)cc2)C(=O)N1`, the viability index worked out at 0.955 ± 0.036.

On to `C[C@@H]1CN([C@H](C)CO)C(=O)c2cc(C#Cc3ccccc3)cnc2O[C@@H]1CN(C)C(=O)c1ccccc1`, for which the viability index was found to be 0.966 ± 0.057.

Compound `O=C(c1ccccn1)N1CC2(C1)[C@H](c1ccccc1)[C@H](CO)N2Cc1ccc(F)cc1` returned a viability index of 1.12 ± 0.073.

`C[C@@H]1CCCCO[C@@H](CN(C)C(=O)Cc2ccccc2)[C@H](C)CN([C@@H](C)CO)C(=O)c2cc(NS(C)(=O)=O)ccc2O1`: the viability index was 1.07 ± 0.024.

Take `COCC#Cc1ccc([C@H]2[C@@H](CO)N3C(=O)CN(C(=O)Nc4ccccc4F)C[C@@H]23)cc1`: the viability index was found to be 1.02 ± 0.044.

On to `CCS(=O)(=O)N1C[C@@]2(C1)CN(Cc1ccc3OCOc3c1)[C@H](CO)c1[nH]c3cc(OC)ccc3c21`, for which the viability index was determined as 1 ± 0.017.

For `N#C[C@H]1N[C@@H](CO)[C@H]1c1ccc(C2=CCCC2)cc1`, the viability index worked out at 1.17 ± 0.03.

`CNC[C@@H]1OCCCC[C@H](C)Oc2ccc(NS(=O)(=O)c3ccc(F)cc3)cc2C(=O)N([C@H](C)CO)C[C@@H]1C` showed a viability index of 1.02 ± 0.15.

Take `COCC(=O)N1C[C@@]2(C1)CN([C@H](CO)c1c2c2ccc(OC)cc2n1C)S(C)(=O)=O`: the viability index is 0.955 ± 0.12.

Compound `COc1ccc2c3c([nH]c2c1)[C@H](CO)N(Cc1ccc(Cl)cc1)C[C@]31CN(C1)S(C)(=O)=O` had a viability index of 0.931 ± 0.066.

The compound `O=C(C1CC1)N1CC[C@@H]2[C@H](CO)Nc3ccc(Br)cc3[C@@H]21` had a viability index of 1.1 ± 0.048.

`COc1ccc(S(=O)(=O)Nc2ccc3c(c2)C(=O)N([C@@H](C)CO)C[C@@H](C)[C@@H](CN(C)Cc2ccc(C(F)(F)F)cc2)OCCCC[C@H](C)O3)cc1`: the viability index was found to be 0.994 ± 0.023.

`O=C(CN1CCOCC1)N1[C@H](CO)[C@@H]2c3ccccc3NC[C@@H]21` came in with a viability index of 1.01 ± 0.028.

With `Cc1noc(C)c1NC(=O)N(C)C[C@@H]1OCCCC[C@H](C)Oc2ccc(NC(=O)Nc3ccc(C(F)(F)F)cc3)cc2C(=O)N([C@H](C)CO)C[C@@H]1C`, the viability index is 1.05 ± 0.09.

`N#Cc1cccc(-c2ccc3c(c2)[C@H]2[C@H](CCN2S(=O)(=O)c2ccc(F)cc2)[C@H](CO)N3)c1` showed a viability index of 1.09 ± 0.017.

Regarding `COc1cccc(C#Cc2ccc([C@@H]3[C@H](C#N)N(C(=O)c4ccccn4)[C@H]3CO)cc2)c1`, the viability index stood at 0.929 ± 0.051.

`CN1C(=O)c2cc(NC(=O)c3ccc4c(c3)OCO4)ccc2OC[C@H]2O[C@H](CC(=O)O)CC[C@H]21` returned a viability index of 1.16 ± 0.026.

`O=C(C1CC1)N1CC2(C1)[C@H](c1ccccc1)[C@H](CO)N2S(=O)(=O)c1ccccc1` yielded a viability index of 1.02 ± 0.046.

Consider `C[C@H]1CN([C@@H](C)CO)C(=O)c2cccc(NC(=O)Nc3ccc(C(F)(F)F)cc3)c2O[C@@H]1CN(C)S(=O)(=O)c1cn(C)cn1`, for which the viability index came out at 1.06 ± 0.045.

For `COc1ccc2c3c([C@H](CO)N(C[C@]33CN(C3)C(=O)CC3CC3)C(=O)C3CCCC3)n(C)c2c1`, the viability index came to 0.897 ± 0.036.

`O=C(NCCc1ccncc1)[C@@H]1[C@@H](CO)[C@@H]2Cn3c(cccc3=O)[C@H]1N2Cc1ccccc1F` registered a viability index of 1.066 ± 0.0064.

On to `O=C(C[C@H]1CC[C@@H]2[C@H](COC[C@H](O)CN2C(=O)c2ccccc2F)O1)NCc1ccc(Cl)c(Cl)c1`, for which the viability index was found to be 1.08 ± 0.019.

Turning to `O=C(C[C@H]1CC[C@@H]2NC[C@@H](O)COC[C@H]2O1)NCCc1ccncc1`, the viability index was 1 ± 0.067.

In turn, `O=C(c1ccccc1)N1C[C@@H]2[C@H](c3ccccc31)[C@H](CO)N2Cc1ccccn1` came in with a viability index of 1.06 ± 0.026.

Regarding `CCS(=O)(=O)N1Cc2cc(C(=O)N(C)C)nc(-c3cccc(-c4ccc(C#N)cc4)c3)c2[C@H]1CCO`, the viability index came to 1.046 ± 0.005.

With `C=C(C)C[C@@H]1CCn2nncc2COCCNC1=O`, the viability index is 1.07 ± 0.019.

With `C[C@H]1CN([C@@H](C)CO)C(=O)CCCn2nncc2CO[C@@H]1CN(C)S(=O)(=O)c1ccc2c(c1)OCCCO2`, the viability index was 1.03 ± 0.036.

As for `O=C(C1CCOCC1)N1[C@H](CO)[C@@H](c2ccccc2)C12CN(CCC(F)(F)F)C2`, the viability index came to 1.13 ± 0.0078.

`CO[C@H]1CN(C)C(=O)c2cc(NC(=O)C3CCOCC3)ccc2OC[C@@H](C)NC[C@@H]1C` displayed a viability index of 1.07 ± 0.017.

In the case of `O=C(C[C@@H]1C=C[C@H](NC(=O)Cc2cccnc2)[C@H](CO)O1)NCc1ccc2c(c1)OCO2`, the viability index turned out to be 1.15 ± 0.087.

In the case of `CC(=O)N1[C@@H]2CN(C(=O)c3ccc(F)cc3)c3ccccc3[C@@H]2[C@@H]1CO`, the viability index is 1.03 ± 0.079.

In the case of `O=C(CCN1CCCCC1)N[C@H]1CC[C@H](CCn2cc(-c3cccc(F)c3)nn2)O[C@@H]1CO`, the viability index was 1.01 ± 0.059.

For `COCC(=O)N1C[C@H]2[C@@H](c3ccccc31)[C@H](CO)N2C(=O)c1ccccc1F`, the viability index turned out to be 0.951 ± 0.069.

`O=C(C1CCOCC1)N1CC(=O)N2[C@H](C1)[C@@H](c1ccc(C#CCc3ccccc3)cc1)[C@@H]2CO`: the viability index was found to be 1.06 ± 0.041.

`Cc1ccc(S(=O)(=O)N[C@@H]2C=C[C@H](CC(=O)NCc3ccc(Cl)c(Cl)c3)O[C@@H]2CO)cc1`: the viability index was 0.927 ± 0.049.

Regarding `O=C(Nc1ccc(F)cc1)N1CC(=O)N2[C@H](CO)[C@@H](c3ccc(-c4cccc(F)c4)cc3)[C@@H]2C1`, the viability index is 1.02 ± 0.066.

The compound `COCC(=O)N1[C@H](C#N)[C@H](c2ccccc2-c2ccccc2F)[C@H]1CO` returned a viability index of 1.13 ± 0.14.

With `COc1ccc2c3c([nH]c2c1)[C@H](CO)N(C[C@]31CCN(Cc2cccnc2)CC1)C(=O)c1ccc(F)cc1`, the viability index was 1.019 ± 0.0041.

`COc1ccc2c3c([nH]c2c1)[C@H](CO)N(C[C@]31CN(C1)C(=O)Nc1cccc(F)c1)C(=O)NC1CCCC1`: the viability index was 0.991 ± 0.026.

`COc1ccc(S(=O)(=O)N2C[C@@H](O)COC[C@H]3O[C@H](CC(=O)N[C@@H]4CCN(Cc5ccccc5)C4)CC[C@@H]32)cc1`: the viability index came out at 1.08 ± 0.032.

`O=C(Cc1cccnc1)N1CC(=O)N2[C@H](CO)[C@@H](c3ccc(/C=C/c4ccccc4)cc3)[C@H]2C1` had a viability index of 1.01 ± 0.019.

For the compound `COc1ccc2c3c([C@@H](CO)N(C[C@]33CCN(CC4CC4)CC3)C(=O)c3ccncc3)n(C)c2c1`, the viability index was 0.937 ± 0.076.

Consider `CO[C@H]1CC[C@@H]2CCN(C)C(=O)[C@@H](C)N(C)C(=O)c3cccc(C#N)c3OC[C@H]1O2`, for which the viability index is 0.96924 ± 3.9e-05.

Compound `COc1ccc2c3c([C@@H](CO)N(C[C@]33CN(CC4CC4)C3)C(=O)Nc3c(C)noc3C)n(C)c2c1` gave a viability index of 1.03 ± 0.17.

The compound `COCC#Cc1ccc([C@@H]2[C@@H](CO)N3C(=O)CN(C(=O)CN4CCOCC4)C[C@@H]23)cc1` yielded a viability index of 1.073 ± 0.0026.

Regarding `O=C(C[C@@H]1CC[C@@H]2NC[C@@H](O)COC[C@H]2O1)Nc1ccc(-c2ccccc2)cc1`, the viability index came to 1.06 ± 0.024.

Turning to `CO[C@@H]1CN(C)C(=O)c2cc(NC(=O)NC(C)C)ccc2OC[C@H](C)N(Cc2ccccc2)C[C@H]1C`, the viability index turned out to be 0.984 ± 0.061.

Consider `O=C(C[C@H]1CC[C@H]2[C@@H](COC[C@@H](O)CN2Cc2ccc(Oc3ccccc3)cc2)O1)N1CCN(c2ccccc2)CC1`, for which the viability index is 1.08 ± 0.14.

Take `COc1cccc(S(=O)(=O)N2C[C@H](O)COC[C@@H]3O[C@H](CC(=O)N4CCN(c5ccccc5)CC4)CC[C@H]32)c1`: the viability index was determined as 0.96247 ± 0.00031.

`C/C=C/c1ccccc1[C@@H]1[C@@H](CO)N(C(=O)CN2CCOCC2)[C@H]1C#N` showed a viability index of 1.11 ± 0.11.

Take `CCc1nc(N2[C@@H](C#N)[C@H](c3ccccc3-c3ccccc3C)[C@@H]2CO)sc1C`: the viability index amounted to 0.81 ± 0.063.

Consider `Cc1noc(C)c1S(=O)(=O)N(C)C[C@@H]1OCCCC[C@@H](C)Oc2ccc(NC(=O)CCC(F)(F)F)cc2C(=O)N([C@H](C)CO)C[C@H]1C`, for which the viability index stood at 1.04 ± 0.022.

Compound `COCCNC(=O)C[C@H]1CC[C@H]2[C@H](COc3ccc(NS(=O)(=O)c4ccc(Cl)cc4)cc3C(=O)N2C)O1` had a viability index of 1.13 ± 0.084.

`O=C(C[C@H]1CC[C@@H]2NC[C@@H](O)COC[C@H]2O1)Nc1ccc(-c2ccccc2)cc1` returned a viability index of 1.01 ± 0.098.

In the case of `COCCNC(=O)c1cc2c(c(-c3cccc(-c4cccc(OC)c4)c3)n1)[C@@H](CCO)N(S(=O)C(C)(C)C)C2` (some centres not stated), the viability index was 1.022 ± 0.0092.

Compound `CCCNC(=O)N1C[C@]2(CCN(CC2)C(=O)C2CCOCC2)c2c([nH]c3cc(OC)ccc23)[C@@H]1CO` yielded a viability index of 1.034 ± 0.01.

`O=C(NC1CCCCC1)N1CC2(C1)[C@@H](c1ccccc1)[C@@H](CO)N2S(=O)(=O)Cc1ccccc1`: the viability index is 1.12 ± 0.026.

`C[C@@H]1CCCCO[C@@H](CN(C)CC2CCCCC2)[C@@H](C)CN([C@@H](C)CO)C(=O)c2cc(NC(=O)Nc3ccc(C(F)(F)F)cc3)ccc2O1` displayed a viability index of 1.1 ± 0.048.
